Screen size: about 48,000 compounds; about 550 (1.1%) were called active. About 4% were inconclusive and are not listed. Rule as the data show it: active = potency below about 15 µM; inconclusive = mostly about 16 µM to 33 µM; inactive = weaker than that. This is one part of the list.
biological target: Lysosomal acid glucosylceramidase (Homo sapiens) (UniProt P04062); assay: Glucocerebrosidase; conditions: purified enzyme, resorufin glucoside fluorescence (screen aimed at inhibitors), 20 min;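 also: the screen sought inhibitors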
UniProt P04062, sequence (P04062 whole entry, looked up): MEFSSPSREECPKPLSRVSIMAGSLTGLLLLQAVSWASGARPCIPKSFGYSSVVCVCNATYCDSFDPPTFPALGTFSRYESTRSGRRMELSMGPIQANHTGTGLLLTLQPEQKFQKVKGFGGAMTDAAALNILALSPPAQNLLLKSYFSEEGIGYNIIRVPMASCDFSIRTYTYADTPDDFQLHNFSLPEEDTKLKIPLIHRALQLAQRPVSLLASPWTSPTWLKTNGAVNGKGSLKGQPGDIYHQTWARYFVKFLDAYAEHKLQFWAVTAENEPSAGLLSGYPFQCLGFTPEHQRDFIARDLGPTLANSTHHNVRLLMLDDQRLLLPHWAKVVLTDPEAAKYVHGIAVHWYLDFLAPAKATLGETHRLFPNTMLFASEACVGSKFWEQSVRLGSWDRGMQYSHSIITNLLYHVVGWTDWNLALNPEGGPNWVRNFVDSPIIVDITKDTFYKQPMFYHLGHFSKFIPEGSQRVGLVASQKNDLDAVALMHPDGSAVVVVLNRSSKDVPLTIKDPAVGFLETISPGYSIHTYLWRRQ
Method in brief: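 Wild-type enzyme at 0.2 nM final in 50mM citric acid/KH2PO4, 10mM sodium taurocholate, 0.01% tween-20, pH 5.9, with resorufin beta-D-glucopyranoside at 30 uM final. Compounds titrated, 20 min at RT, red fluorescence read; AC50 from titration.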
Potency is read from the fitted curve at half-maximal effect.

Potency, inactive:
CN(C)c1nc(Oc2ccc(=O)[nH]n2)nc(N2CCCCC2)n1 > 76.9 µM
Fc1ccc(-c2cc3nc(-c4ccccc4)cc(N4CCOCC4)n3n2)cc1 > 76.9 µM
COC(=O)COc1ccc(S(=O)(=O)Nc2ccc(C(N)=O)cc2)cc1 > 76.9 µM
CCn1cc(C(=O)O)c(=O)c2cnc(N3CCN(C(=O)Nc4ccccc4)CC3)nc21 > 76.9 µM
O=C1Nc2ccc(NS(=O)(=O)c3cccs3)c3cccc1c23 > 76.9 µM
CCCc1nnc(NC(=O)CCN2C(=O)c3ccccc3C2=O)s1 > 76.9 µM
Cc1nnc(SCC(=O)NCCN2C(=O)CSC2=O)s1 > 76.9 µM
CCN1CCN(C(=O)CCCCCn2c(=O)[nH]c3cc(C(=O)OC)ccc3c2=O)CC1 > 76.9 µM
O=C(CN1C(=O)CSC1=O)c1ccccc1 > 76.9 µM
COc1ccc(C(=O)N2CCN(S(=O)(=O)c3ccccc3)CC2)c(OC)c1 > 76.9 µM
COc1ccc(CCn2c(N3CCN(Cc4ccccc4)CC3)nc3c2c(=O)[nH]c(=O)n3C)cc1 > 76.9 µM
CCOc1ccccc1C1CC(=O)NC(SCC)=C1C#N (stereo not given) > 76.9 µM
CCOCCCNc1nc2ccccc2[nH]1 > 76.9 µM
COc1ccc(OC)c(S(=O)(=O)NCc2cccnc2)c1 > 76.9 µM
CC(=O)Nc1ccc(OCC(O)Cn2nc(C)c(C(C)=O)c2C)cc1 (stereo not given) > 76.9 µM
CCOC(=O)c1ccc(NC(=O)C(C)NS(=O)(=O)c2ccc(OC)cc2)cc1 (stereo not given) > 76.9 µM
Cc1ccccc1C(=O)N1CCN(c2nc(N3CCOCC3)nc(N3CCOCC3)n2)CC1 > 76.9 µM
CCOCCCNC(=O)CSc1ccccc1 > 76.9 µM
O=C(O)CCN(CCC(=O)O)c1ccccc1 > 76.9 µM
COC(=O)c1ccc(C(=O)OC)c(NC(=O)CN2CCN(c3ccccc3OC)CC2)c1 > 76.9 µM
Nc1ccc(-c2cnc(-c3ccc(N)cc3)nc2)cc1 > 76.9 µM
Nc1nc(-c2ccc(Cl)cc2)nn1C(=O)c1cccnc1 > 76.9 µM
Nc1ccc(S(=O)(=O)c2cccc(N)c2)cc1 > 76.9 µM
O=C(Nc1ccc2c(c1)CCC2)C1CCN(c2c3c(nc4ncnn24)CCC3)CC1 > 76.9 µM
COC(=O)c1ccsc1NC(=O)CSc1nnnn1-c1ccccc1SC > 76.9 µM

— PubChem BioAssay AID360 (National Center for Advancing Translational Sciences (NCATS), 2006)
